Drawing on PMC6465297, this text covers binding for three molecules.

Protein sequences, listed by entry. Tags and fused reporters are not part of them.
UniProt Q9BVV6: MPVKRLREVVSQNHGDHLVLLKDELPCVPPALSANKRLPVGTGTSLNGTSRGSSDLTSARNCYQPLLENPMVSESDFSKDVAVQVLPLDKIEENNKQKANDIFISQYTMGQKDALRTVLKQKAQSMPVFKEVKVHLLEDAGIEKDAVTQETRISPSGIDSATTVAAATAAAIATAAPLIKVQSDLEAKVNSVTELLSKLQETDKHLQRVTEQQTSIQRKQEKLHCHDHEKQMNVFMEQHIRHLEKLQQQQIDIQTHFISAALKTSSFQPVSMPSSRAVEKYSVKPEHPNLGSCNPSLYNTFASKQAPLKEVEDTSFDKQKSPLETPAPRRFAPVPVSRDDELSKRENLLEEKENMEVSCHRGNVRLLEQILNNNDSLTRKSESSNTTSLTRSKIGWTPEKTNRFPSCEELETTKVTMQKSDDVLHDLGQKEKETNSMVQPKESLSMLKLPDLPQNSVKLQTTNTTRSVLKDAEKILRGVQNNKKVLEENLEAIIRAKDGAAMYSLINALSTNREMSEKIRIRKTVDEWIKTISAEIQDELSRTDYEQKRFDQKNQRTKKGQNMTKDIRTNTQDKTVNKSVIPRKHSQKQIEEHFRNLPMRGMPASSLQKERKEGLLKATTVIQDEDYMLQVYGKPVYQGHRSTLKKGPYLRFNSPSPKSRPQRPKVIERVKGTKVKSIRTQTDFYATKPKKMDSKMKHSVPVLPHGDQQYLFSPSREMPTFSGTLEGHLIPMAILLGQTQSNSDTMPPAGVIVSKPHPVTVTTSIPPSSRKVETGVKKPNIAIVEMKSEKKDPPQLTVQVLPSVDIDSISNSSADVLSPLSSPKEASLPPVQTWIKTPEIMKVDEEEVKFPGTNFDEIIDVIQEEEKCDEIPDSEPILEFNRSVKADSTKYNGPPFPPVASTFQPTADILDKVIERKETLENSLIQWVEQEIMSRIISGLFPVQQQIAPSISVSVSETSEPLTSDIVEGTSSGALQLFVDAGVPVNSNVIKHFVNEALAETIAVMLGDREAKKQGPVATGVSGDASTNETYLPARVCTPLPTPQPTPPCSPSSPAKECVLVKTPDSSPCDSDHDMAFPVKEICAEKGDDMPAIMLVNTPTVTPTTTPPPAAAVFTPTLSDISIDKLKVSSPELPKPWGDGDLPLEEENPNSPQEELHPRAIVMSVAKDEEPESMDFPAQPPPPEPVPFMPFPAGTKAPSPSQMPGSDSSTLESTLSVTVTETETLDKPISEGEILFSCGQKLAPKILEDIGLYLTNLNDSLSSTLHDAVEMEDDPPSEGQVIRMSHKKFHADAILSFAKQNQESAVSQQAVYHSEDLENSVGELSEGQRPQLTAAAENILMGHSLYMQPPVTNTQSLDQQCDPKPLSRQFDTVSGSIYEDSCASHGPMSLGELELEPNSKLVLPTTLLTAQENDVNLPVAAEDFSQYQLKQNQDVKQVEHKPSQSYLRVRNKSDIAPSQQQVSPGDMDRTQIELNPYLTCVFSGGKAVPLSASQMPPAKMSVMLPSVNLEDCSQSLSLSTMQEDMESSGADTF
UniProt Q4AC94: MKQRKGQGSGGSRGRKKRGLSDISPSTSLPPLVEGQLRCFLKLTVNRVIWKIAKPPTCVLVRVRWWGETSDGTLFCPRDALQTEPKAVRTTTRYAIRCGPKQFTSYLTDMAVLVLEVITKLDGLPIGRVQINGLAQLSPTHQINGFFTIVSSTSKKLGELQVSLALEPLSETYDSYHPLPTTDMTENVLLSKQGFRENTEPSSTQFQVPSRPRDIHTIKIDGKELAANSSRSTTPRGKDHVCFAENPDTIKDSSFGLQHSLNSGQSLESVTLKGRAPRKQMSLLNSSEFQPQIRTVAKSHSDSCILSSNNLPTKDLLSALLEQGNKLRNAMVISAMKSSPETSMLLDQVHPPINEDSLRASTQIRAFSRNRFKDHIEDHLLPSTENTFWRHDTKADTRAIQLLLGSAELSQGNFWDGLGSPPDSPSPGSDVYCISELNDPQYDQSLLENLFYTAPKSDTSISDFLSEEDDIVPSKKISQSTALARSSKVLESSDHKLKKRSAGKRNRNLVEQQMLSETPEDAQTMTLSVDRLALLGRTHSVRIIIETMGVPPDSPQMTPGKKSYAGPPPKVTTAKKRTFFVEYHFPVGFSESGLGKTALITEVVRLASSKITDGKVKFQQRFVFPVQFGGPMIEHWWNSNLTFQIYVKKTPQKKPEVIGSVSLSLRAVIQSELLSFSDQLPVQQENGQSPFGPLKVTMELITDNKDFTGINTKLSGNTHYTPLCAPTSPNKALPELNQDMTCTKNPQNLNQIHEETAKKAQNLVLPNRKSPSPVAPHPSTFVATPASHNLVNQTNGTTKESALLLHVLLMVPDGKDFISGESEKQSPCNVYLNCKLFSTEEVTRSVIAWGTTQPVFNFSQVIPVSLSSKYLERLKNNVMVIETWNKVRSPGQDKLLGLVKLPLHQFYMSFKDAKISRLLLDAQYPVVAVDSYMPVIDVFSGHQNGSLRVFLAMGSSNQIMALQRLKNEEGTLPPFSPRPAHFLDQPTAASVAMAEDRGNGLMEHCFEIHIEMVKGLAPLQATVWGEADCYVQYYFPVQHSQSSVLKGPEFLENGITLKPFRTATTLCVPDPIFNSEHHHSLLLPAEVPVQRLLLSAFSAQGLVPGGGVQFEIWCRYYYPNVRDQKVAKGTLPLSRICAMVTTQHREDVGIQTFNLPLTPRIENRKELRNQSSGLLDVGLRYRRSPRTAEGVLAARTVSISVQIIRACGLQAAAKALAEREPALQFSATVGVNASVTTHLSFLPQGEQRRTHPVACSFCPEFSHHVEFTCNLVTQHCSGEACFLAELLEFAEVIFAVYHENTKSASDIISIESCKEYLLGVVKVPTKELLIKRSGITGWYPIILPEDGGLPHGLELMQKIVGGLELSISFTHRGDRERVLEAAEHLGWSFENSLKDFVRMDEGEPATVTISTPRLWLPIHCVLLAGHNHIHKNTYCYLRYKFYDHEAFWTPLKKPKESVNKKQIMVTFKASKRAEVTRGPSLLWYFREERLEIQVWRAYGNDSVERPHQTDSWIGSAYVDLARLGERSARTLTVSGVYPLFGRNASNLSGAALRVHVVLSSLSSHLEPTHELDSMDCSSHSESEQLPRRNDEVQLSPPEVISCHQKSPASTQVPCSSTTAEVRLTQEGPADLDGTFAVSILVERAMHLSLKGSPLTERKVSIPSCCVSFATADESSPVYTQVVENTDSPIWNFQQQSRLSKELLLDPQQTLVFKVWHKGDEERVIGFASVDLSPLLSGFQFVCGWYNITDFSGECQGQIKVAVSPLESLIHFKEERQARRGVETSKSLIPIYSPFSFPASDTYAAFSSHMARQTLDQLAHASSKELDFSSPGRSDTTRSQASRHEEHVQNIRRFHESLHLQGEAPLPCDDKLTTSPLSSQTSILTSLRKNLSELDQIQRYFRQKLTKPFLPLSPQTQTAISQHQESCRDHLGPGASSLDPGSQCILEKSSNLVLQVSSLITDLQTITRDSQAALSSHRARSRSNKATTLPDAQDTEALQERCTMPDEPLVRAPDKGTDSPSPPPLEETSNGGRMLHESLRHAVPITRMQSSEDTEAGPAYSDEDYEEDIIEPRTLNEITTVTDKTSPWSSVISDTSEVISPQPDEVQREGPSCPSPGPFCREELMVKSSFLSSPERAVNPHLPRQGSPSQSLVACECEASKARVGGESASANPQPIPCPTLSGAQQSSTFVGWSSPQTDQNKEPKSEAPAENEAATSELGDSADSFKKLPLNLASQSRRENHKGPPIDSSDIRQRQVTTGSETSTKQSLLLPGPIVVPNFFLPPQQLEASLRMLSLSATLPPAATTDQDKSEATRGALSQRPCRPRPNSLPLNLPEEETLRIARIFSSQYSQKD

Results are given in words; binding and its absence hold for the method and conditions named. In cells and extracts the contact can be indirect. Some results given as binding are weak or reduced against the parent protein; the word gives no strength. Tags and fused reporters may be left off the sequences shown.

In assay [1] the target is T1, GST-CEP120 (aa 416–894) (human) (UniProt Q8N960).
T1 sequence: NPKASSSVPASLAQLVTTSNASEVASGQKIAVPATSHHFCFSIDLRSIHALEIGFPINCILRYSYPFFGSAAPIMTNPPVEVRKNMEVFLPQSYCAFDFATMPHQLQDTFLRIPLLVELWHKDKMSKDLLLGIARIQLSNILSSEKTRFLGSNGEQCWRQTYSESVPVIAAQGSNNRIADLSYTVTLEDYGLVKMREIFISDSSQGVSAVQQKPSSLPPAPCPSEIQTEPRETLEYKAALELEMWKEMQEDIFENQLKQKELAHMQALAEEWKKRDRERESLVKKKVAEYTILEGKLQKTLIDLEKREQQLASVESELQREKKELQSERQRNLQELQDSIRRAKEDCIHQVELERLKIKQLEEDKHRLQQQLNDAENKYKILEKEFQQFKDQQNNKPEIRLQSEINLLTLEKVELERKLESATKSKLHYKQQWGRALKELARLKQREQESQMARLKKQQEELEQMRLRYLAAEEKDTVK
The assay is described as follows: pull-down; bead-bound GST or GST-CEP120 proteins incubated with in vitro translated ^35S-methionine-labeled protein in EBC buffer (50 mM Tris–HCl pH 8.0, 150 mM NaCl, 1% NP-40) without sodium deoxycholate; SDS-PAGE and autoradiography; only the target purified.

For assay [2], the target named is T1, GST-CEP120 (aa 416–894) (human). The assay can be described thus: condition: only with 0.5% sodium deoxycholate (SDC) in the reaction buffer; pull-down; bead-bound GST-CEP120 proteins incubated with in vitro translated ^35S-methionine-labeled protein in EBC buffer (50 mM Tris–HCl pH 8.0, 150 mM NaCl, 1% NP-40) with 0.5% sodium deoxycholate (SDC); SDS-PAGE and autoradiography; only the target purified.

Assay [3] addresses T2, GST-CEP120 (aa 792–986) (human) (UniProt Q8N960).
T2 sequence: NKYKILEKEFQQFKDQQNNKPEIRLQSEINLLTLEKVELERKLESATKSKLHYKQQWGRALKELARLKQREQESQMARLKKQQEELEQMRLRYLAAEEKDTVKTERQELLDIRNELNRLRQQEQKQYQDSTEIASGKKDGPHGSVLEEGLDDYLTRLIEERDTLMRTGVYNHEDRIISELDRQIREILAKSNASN
The assay can be described thus: pull-down; bead-bound GST or GST-CEP120 proteins incubated with in vitro translated ^35S-methionine-labeled protein in EBC buffer (50 mM Tris–HCl pH 8.0, 150 mM NaCl, 1% NP-40) without sodium deoxycholate; SDS-PAGE and autoradiography; only the target purified.

Assay [4] deals with T3, GST-CEP120 (aa 1–441) (human) (UniProt Q8N960).
T3 sequence: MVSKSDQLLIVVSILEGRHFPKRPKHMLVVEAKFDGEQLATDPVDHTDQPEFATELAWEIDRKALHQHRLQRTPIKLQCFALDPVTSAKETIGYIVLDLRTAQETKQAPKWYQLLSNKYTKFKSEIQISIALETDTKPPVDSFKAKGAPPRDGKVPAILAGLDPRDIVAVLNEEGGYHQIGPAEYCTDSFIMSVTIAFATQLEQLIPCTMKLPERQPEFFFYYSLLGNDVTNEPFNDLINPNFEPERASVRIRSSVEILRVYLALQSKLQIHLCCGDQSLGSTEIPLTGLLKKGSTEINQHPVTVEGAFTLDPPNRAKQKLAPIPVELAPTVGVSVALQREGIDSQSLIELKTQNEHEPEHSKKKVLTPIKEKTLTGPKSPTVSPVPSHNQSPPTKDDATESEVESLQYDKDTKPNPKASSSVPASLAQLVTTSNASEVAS
Described as above.

In assay [5] the target is T2, GST-CEP120 (aa 792–986) (human). The assay can be described thus: pull-down; bead-bound GST-CEP120 proteins incubated with in vitro translated ^35S-methionine-labeled protein in EBC buffer (50 mM Tris–HCl pH 8.0, 150 mM NaCl, 1% NP-40) with 0.5% sodium deoxycholate (SDC); SDS-PAGE and autoradiography; only the target purified.
A further assay addresses GFP-Talpid3 (human) (UniProt Q9BVV6). The assay can be described thus: co-IP; HEK293T cells co-transfected with the GFP- and myc-tagged constructs; lysates 24 h after transfection immunoprecipitated (anti-GFP antibody in the mapping) and immunoblotted. In general terms: In western blotting, separated proteins are transferred to a membrane and probed.
In assay [6] the target is full-length GFP-C2CD3 (human) (UniProt Q4AC94). The assay is described as above.

Consider “^35S-methionine-labeled full-length Talpid3 (from UniProt Q9BVV6 1-1533)”, for which the binding result in assay [1] was “binds”; in assay [2], “no binding”.
As to “in vitro-translated ^35S-methionine-labeled full-length C2CD3 (from UniProt Q4AC94 1-2353)”, the binding entry in assay [3] is “binds”; in assay [1] it was “binds weakly”; in assay [4], “no binding”; in assay [5], “binds”.

B1: full-length CEP120-myc (aa 1–986) (protein, UniProt Q8N960 1-986)
chain: MVSKSDQLLIVVSILEGRHFPKRPKHMLVVEAKFDGEQLATDPVDHTDQPEFATELAWEIDRKALHQHRLQRTPIKLQCFALDPVTSAKETIGYIVLDLRTAQETKQAPKWYQLLSNKYTKFKSEIQISIALETDTKPPVDSFKAKGAPPRDGKVPAILAGLDPRDIVAVLNEEGGYHQIGPAEYCTDSFIMSVTIAFATQLEQLIPCTMKLPERQPEFFFYYSLLGNDVTNEPFNDLINPNFEPERASVRIRSSVEILRVYLALQSKLQIHLCCGDQSLGSTEIPLTGLLKKGSTEINQHPVTVEGAFTLDPPNRAKQKLAPIPVELAPTVGVSVALQREGIDSQSLIELKTQNEHEPEHSKKKVLTPIKEKTLTGPKSPTVSPVPSHNQSPPTKDDATESEVESLQYDKDTKPNPKASSSVPASLAQLVTTSNASEVASGQKIAVPATSHHFCFSIDLRSIHALEIGFPINCILRYSYPFFGSAAPIMTNPPVEVRKNMEVFLPQSYCAFDFATMPHQLQDTFLRIPLLVELWHKDKMSKDLLLGIARIQLSNILSSEKTRFLGSNGEQCWRQTYSESVPVIAAQGSNNRIADLSYTVTLEDYGLVKMREIFISDSSQGVSAVQQKPSSLPPAPCPSEIQTEPRETLEYKAALELEMWKEMQEDIFENQLKQKELAHMQALAEEWKKRDRERESLVKKKVAEYTILEGKLQKTLIDLEKREQQLASVESELQREKKELQSERQRNLQELQDSIRRAKEDCIHQVELERLKIKQLEEDKHRLQQQLNDAENKYKILEKEFQQFKDQQNNKPEIRLQSEINLLTLEKVELERKLESATKSKLHYKQQWGRALKELARLKQREQESQMARLKKQQEELEQMRLRYLAAEEKDTVKTERQELLDIRNELNRLRQQEQKQYQDSTEIASGKKDGPHGSVLEEGLDDYLTRLIEERDTLMRTGVYNHEDRIISELDRQIREILAKSNASN
With B1, the binding entry (with GFP-Talpid3 (human); in assay [6]) was “binds” each time.
